From PubChem BioAssay AID686979 (National Center for Advancing Translational Sciences (NCATS), 2013)
Hit rate of the full screen: of about 420,000 compounds, about 50,000 (12%) were called active. Inconclusive results, whose numbers are uncertain, are shown with a selection of clear calls. Calls come from the whole dose curve; as a rule, active = well fitted inhibition curve with a large enough effect; inconclusive = small, poorly fitted or top-dose-only effect; inactive = flat fitted curve, though single readings scatter. Potencies of inconclusive entries are left out as doubtful fits.

assay: qHTS for Inhibitors of human tyrosyl-DNA phosphodiesterase 1 (TDP1): qHTS in cells in presence of CPT; conditions: chicken DT40 Tdp1-/-;hTDP1 cells + 20 nM CPT, ATP luminescence, 48 h; activity change, negative = growth inhibition: at 46.2 µM (top of the series) unless noted; note: nearly all actives have a fitted effect of over 55% in size
Summary of the method: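 Cell growth measured by CellTiter-Glo luminescence after a minimum 48 h, 37 C compound exposure with 20 nM CPT in Tdp1-knockout DT40 cells stably expressing hTDP1, seeded 400/well; qHTS titration format.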
% is set by controls: 0 for no effect and ±100 for the full control effect; potency is the fitted concentration of half-maximal effect; tags give direction and shape of the fitted curve.

| Structure (SMILES) | Potency | activity change, negative = growth inhibition |
| --- | --- | --- |
| O=C(CN1C(=O)NC2(CCCc3ccccc32)C1=O)N1CCN(c2cccc(C(F)(F)F)c2)CC1 (configuration not stated) | inconclusive [inhibitor, full curve] | – |
| Cc1ccc(Cl)cc1NC(=O)CN1CCN(S(=O)(=O)N2CCC(C)CC2)CC1 | inconclusive [inhibitor, partial curve] | – |
| Cc1cccc(-c2nc3c(c(SCC(=O)N4CCCC4)n2)COC(C)(C)C3)c1 | inconclusive [inhibitor, partial curve, poor fit] | – |
| OC(CN1CCN(c2ccccc2F)CC1)c1ccc(F)cc1 (configuration not stated) | – | inactive: -42.2% |
| CCCCNC(=O)C1(C)CCCCCN1Cc1cccc2c(OC)cc(C(=O)OCC)cc12 (configuration not stated) | inconclusive [inhibitor, single point] | – |
| CCNC(=O)NC(=O)COC(=O)CCCc1nc2ccccc2s1 | – | inactive: -0.313% |
| Cc1c(C(=O)N2CCC(C)CC2)c(S(=O)(=O)N2CCN(c3cccc(Cl)c3)CC2)c(C)n1C | inconclusive [inhibitor, single point] | – |
| O=C(NCCC(F)(F)F)C1Cc2c(-c3ccc(Cl)cc3)ccnc2O1 (configuration not stated) | inconclusive [inhibitor, single point] | – |
| CCOC(=O)C1=c2s/c(=C\c3cccnc3)c(=O)n2C(N)=C(C(=O)OC)C1c1cccnc1 (configuration not stated) | active: 23.1 µM | – |
| N#Cc1ccc(-n2nccc2-c2cnc3n(c2=O)CCS3)cc1 | inconclusive [inhibitor, single point] | – |
| Cc1ccc2nc(SCC(=O)Nc3ccc(C#N)cc3)[nH]c2c1 | inconclusive [inhibitor, single point] | – |
| O=c1cc(O)c2c([nH]1)CCC2 | – | inactive: -5.26% |
| CCCn1c(N)c(C(=O)CSc2n[nH]c(-c3ccc(C)cc3)n2)c(=O)[nH]c1=O | inconclusive [inhibitor, single point] | – |
| CCOc1ccc(C(=O)NCc2ccc3c(c2)CCN3C(=O)c2ccc(C)cc2)cc1OCC | active: 11.6 µM | – |
| O=C(O)Cc1ccc(S(=O)(=O)Nc2ccccc2C(=O)O)cc1 | – | inactive: 6.43% |
| O=C(COc1ncnc2c(Cl)cc(Cl)cc12)NCCC1=CCCCC1 | – | inactive: 0.249% |
| Cc1ccc(-c2cc(-c3nnc(SCC(=O)NCC(C)C)n3N)c3ccccc3n2)cc1 | inconclusive [inhibitor, single point] | – |
| COc1ccc(Cl)cc1NC(=O)CN(C)CC(=O)Nc1c(C)n(C)n(-c2ccccc2)c1=O | inconclusive [inhibitor, single point] | – |
| COc1ccc(S(=O)(=O)c2cn(Cc3ccccc3)c3cc(F)c(F)cc3c2=O)cc1 | active: 14.6 µM | – |
| CCN(CC)c1ccc(CNc2nc3ccccc3n2CCN2CCOCC2)cc1 | inconclusive [inhibitor, partial curve, poor fit] | – |
| C(=N\Nc1nc2ccccc2[nH]1)/c1ccc2c(c1)OCO2 | inconclusive [inhibitor, single point] | – |
| O=[N+]([O-])c1cc(C(F)(F)F)ccc1NCCc1c[nH]c2ccc(O)cc12 | inconclusive [inhibitor, single point] | – |
| Cc1cccc(N2C(=O)CC(Sc3ccccc3C(=O)O)C2=O)c1 (configuration not stated) | inconclusive [inhibitor, single point] | – |

| Structure (SMILES) | Potency | activity change, negative = growth inhibition |
| --- | --- | --- |
| CCOC(=O)NCCc1c(C)nc2c(c(C)nn2C(C)(C)C)c1C | – | inconclusive: -31.5% [inhibitor] |
| CCc1nc2ccc(C(=O)NCCCN3CCN(c4ccc(F)cc4)CC3)cc2nc1CC | inconclusive [inhibitor, single point] | – |
| Fc1ccc(Nc2nc(Nc3ccc(F)cc3)nc(N3CCOCC3)n2)cc1 | inconclusive [inhibitor, single point] | – |
| CN(CC(=O)Nc1c(Cl)cccc1Cl)C(=O)CCNS(=O)(=O)c1ccccc1C(F)(F)F | inconclusive [inhibitor, full curve] | – |
| COc1ccc(CN2CCC(C(=O)Nc3ccc(Oc4cccnc4)cc3)CC2)cc1 | inconclusive [inhibitor, single point] | – |
| O=C(CCS(=O)(=O)c1ccccc1)Nc1nccs1 | inconclusive [inhibitor, single point] | – |
| COc1ccc2cc(-c3[nH]ncc3CN3CCCC3c3nonc3C)ccc2c1 (configuration not stated) | inconclusive [inhibitor, single point] | – |
| O=C(Oc1ccc(/C=N/n2cnnc2)cc1)c1cccc([N+](=O)[O-])c1 | inconclusive [inhibitor, single point] | – |
| CN(C(=S)Nc1ccc(F)cc1)C1(c2ccccc2Cl)CCCCC1=O (configuration not stated) | inconclusive [inhibitor, single point] | – |
| COc1ccc(N2CC(C(=O)NCCc3ccc(Cl)cc3)CC2=O)cc1 (configuration not stated) | – | inactive: -11.9% |
| COc1cc(CNC(C)(C)C)cc(Br)c1OCc1cccs1 | inconclusive [inhibitor, single point] | – |
| CCCC/C=C/C(NC(=O)c1ccc(C(=O)OC)cc1)c1ccccc1 (configuration not stated) | inconclusive [inhibitor, single point] | – |
| Cc1ccc2c(c1)/C(=C/c1ccc(F)cc1)C(=O)N2 | inconclusive [inhibitor, single point] | – |
| CN(C)CCCNS(=O)(=O)c1cc(Cl)c(Cl)cc1Cl | inconclusive [inhibitor, single point] | – |
| N=c1c(C(=O)NC2CCCCC2)cc2c(=O)n3ccccc3nc2n1CCc1ccccc1 | inconclusive [inhibitor, single point] | – |
| Cc1ccc(C)c(C(=O)CN2C(=O)NC3(CCC(C)CC3)C2=O)c1 (configuration not stated) | – | inactive: -28.5% |
| O=C(Nc1ccccc1)N1CCN(c2ccc(C(F)(F)F)cn2)CC1 | active: 7.31 µM | – |
| O=C(NC1CCCCC1)Oc1cccc2ccccc12 | inconclusive [inhibitor, single point] | – |
| Cc1cccc(NS(=O)(=O)c2cccc(C(=O)NCC(c3ccc(F)cc3)N3CCOCC3)c2)c1 (configuration not stated) | inconclusive [inhibitor, partial curve] | – |
| COc1ccc(C2Nc3ccccc3C(=O)N2c2ccc(Cl)cc2)cc1COc1ccc(NC(C)=O)cc1 (configuration not stated) | inconclusive [inhibitor, single point] | – |
| COc1ccc(NC(=O)C(=O)NCC2(c3ccccc3)CCCC2)c(OC)c1 | inconclusive [inhibitor, single point] | – |
| COCCNc1nc(NCc2cc(-c3ccc(OC)cc3)no2)c2sccc2n1 | inconclusive [inhibitor, single point] | – |
| CNC(=O)CSc1nnc(NC(=O)Nc2ccccc2)s1 | inconclusive [inhibitor, single point] | – |

| Structure (SMILES) | Potency | activity change, negative = growth inhibition |
| --- | --- | --- |
| O=C(Cn1c(NCCO)nc2ccccc21)Nc1cccc(S(=O)(=O)N2CCCC2)c1 | inconclusive [inhibitor, single point] | – |
| O=C(CSc1nnc(-c2ccc(Br)cc2)n1-c1ccccc1)c1ccccc1 | active: 7.31 µM | – |
| C=CCOc1c(Cl)cc(Cl)cc1S(=O)(=O)NCCO | – | inactive: 11.1% |
| COc1cccc(-c2cc(NCc3ccccc3)ncn2)c1 | inconclusive [inhibitor, single point] | – |
| C[C@@H]1COC(=O)[C@H](CC(=O)OC(C)(C)C)C/C=C\C[C@@H](CC(=O)N[C@H](CO)Cc2ccccc2)C(=O)N1 | – | inactive: -1.52% |
| O=C(N/N=C/c1ccc(C(=O)O)cc1)C1=NNC(c2ccccc2)(c2ccccc2)C1 | – | inactive: -10.1% |
| O=C(c1ccc(F)c(S(=O)(=O)N2CCOCC2)c1)N(CCc1ccccc1)Cc1ccccc1 | active: 14.6 µM | – |
| O=C(NC(=S)Nc1ccc(-c2ccccc2)cc1)c1ccccc1 | – | inactive: -24.6% |
| Cc1ccc(N(CC(C)C)S(=O)(=O)c2nnc(NC(=O)c3cccs3)s2)cc1 | inconclusive [inhibitor, single point] | – |
| O=C1CCCC2=C1C(c1ccsc1)CC(=O)N2c1ccccc1F (configuration not stated) | – | inactive: -0.328% |
| Cc1cc(NC(=O)CSc2nc(CCC3CCCC3)nc3ccccc23)no1 | inconclusive [inhibitor, single point] | – |
| Cc1nc(-c2ccc(Cl)cc2)sc1C1(C)CC(c2c(Cl)cccc2Cl)=NO1 (configuration not stated) | inconclusive [inhibitor, partial curve] | – |
| COc1ccc(C(=O)NCC(c2ccc3c(c2)OCO3)N2CCN(c3ccc(F)cc3)CC2)cc1 (configuration not stated) | active: 3.26 µM | – |
| COc1ccc(N2CCN(c3cc(=O)n(Cc4ccc(F)cc4)c(=O)[nH]3)CC2)cc1 | inconclusive [inhibitor, partial curve, poor fit] | – |
| c1ccc2c(C3=NNC(=NC4CCCCC4)SC3)c[nH]c2c1 | inconclusive [inhibitor, single point] | – |
| COCC(=O)n1nc(-c2ccc(C)cc2)nc1NCc1ccc(F)cc1 | inconclusive [inhibitor, partial curve] | – |
| COc1ccc(NC(=O)CN(C)C(=O)c2cc(-c3ccc(Cl)cc3)nc3ccccc23)cc1 | inconclusive [inhibitor, single point] | – |
| COc1ccc2[nH]c(=O)c(-c3noc(-c4ccccc4)n3)cc2c1 | active: 20.6 µM | – |
| CN(C)c1cccc(C(=O)NC2CCCc3ccccc32)c1 (configuration not stated) | inconclusive [inhibitor, single point] | – |
| O=C(NCc1ccncc1)c1ccc(-c2ccc(F)c(F)c2)c2ccoc12 | active: 4.11 µM | – |
| CCOc1ccc(/C=C/c2nc(C#N)c(N3CCN(c4ccccc4)CC3)o2)cc1 | inconclusive [inhibitor, single point] | – |
